# Results reported in article PMC12040169 (PLOS Biology, 2025).
# This is one part of the list.
# Test system: T1, C. trachomatis L2/434/Bu expressing GFP (CTL2-GFP)
# T1 construct: L2/434/Bu GFP intracellular growth in HeLa cells
# Design: species or system HeLa; C. trachomatis total inclusion area by high-content imaging, normalised to DMSO
# Settings: total inclusion area; 28.5 h, 10 µM; inhibitor
# Summary of the method: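 Imaging read-out: GFP inclusions and Hoechst nuclei captured by high-content imaging after fixation. Inclusion area/number = chlamydial growth; nuclei count = host cell viability. MIC calculated per earlier method.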
row,SMILES,% of control remaining
1,Cc1nonc1CC(=O)N[C@H]1C2CCCCC2[C@@H]1c1ccccc1 (stereo partly drawn) [CBK285126],101.002
2,CCn1cc(S(=O)(=O)NC2CCc3[nH]c4ccc(C)cc4c3C2)cn1 (stereo not drawn) [CBK304790],88.9014
3,CCC1CCCCN1C(=O)c1sc2ncccc2c1N (stereo not drawn) [CBK081410],84.6329
4,CC(C)NS(=O)(=O)c1ccc(NS(=O)(=O)c2cc(C(=O)O)ccc2Cl)cc1 [CBK296951],77.6287
5,COc1ccc(S(=O)(=O)Nc2ccc3oc4c(c3c2)CC(C)CC4)cc1[N+](=O)[O-] (stereo not drawn) [CBK266131],79.5464
6,c1ccc2c(c1)/C(=N/OCCCN1CCCCC1)CC21CCCCC1 [CBK013321],25.1119
7,O=S(=O)(Nc1ccc2cn[nH]c2c1)c1ccc(-c2ccon2)s1 [CBK067157],95.5565
8,FC(F)(F)c1cnc(N2CCNCC2)c(Cl)c1 [CBK013400],92.9512
9,CCN1C(=O)c2ccccc2C(=O)[C@@]2(C)CN(C(=O)C3CC3)C[C@@H]12 [CBK284567],123.464
10,CN(C)CCN1CCN(CC2(c3ccc(Cl)cc3)CC2)CC1 [CBK282783],101.8
11,O=c1nc(C(F)(F)F)n2ccccc2n1 [CBK027683],86.528
12,CCOc1ccc2nc(SCc3nc(N)nc(Nc4cccc(Cl)c4C)n3)sc2c1 [CBK265202],90.049
13,CN(C)CCCN1C(=O)C(O)=C(C(=O)c2ccc(Br)cc2)C1c1cccnc1 (stereo not drawn) [CBK264589],115.962
14,COc1ccccc1-c1ncc(OCc2ccccn2)nc1N [CBK145070],101.245
15,CCN1CCN(C(=S)c2ccc(OCC(N)=O)c(OC)c2)CC1 [CBK269293],86.602
16,CCN1C(=O)CC2(C1=O)C(=O)N(CCc1cccs1)c1ccccc12 (stereo not drawn) [CBK075521],89.1512
17,O=C(NCC(F)F)c1cn2cc(-c3cccs3)n(CC3CC3)c(=O)c2n1 [CBK307347],79.4177
18,CN(C(=O)C1CCN(Cc2cccc(C(F)(F)F)c2)CC1)C(c1ccc(F)cc1)c1ccccn1 (stereo not drawn) [CBK148409],106.989
19,CCNS(=O)(=O)c1ccc(NC(=S)Nc2ccc(S(N)(=O)=O)cc2)cc1 [CBK266978],92.2571
20,Cc1c(C)n(Cc2ccco2)c2ncnc(SCCC(=O)O)c12 [CBK307569],41.3982
21,COCC(=O)NC1CCN(CC2(c3ccc(C)cc3)CC2)CC1 [CBK285350],91.2577
22,O=S(=O)(NC1CCCCC1)c1ccc(Cl)cc1I [CBK057574],99.1309
23,CC1(C)Cc2c(sc(NC(=O)C3CC(Cl)=CCC3C(=O)O)c2C#N)CO1 (stereo not drawn) [CBK265002],127.371
24,C/C(=N\Nc1ccc(Cl)c(Cl)c1)c1cccnc1 [CBK015914C],11.1094
25,O=C(CCSc1ccccc1)Nc1ccccc1C(=O)O [CBK264119],71.5536
26,CSc1ccc(-c2cnc(N)c(-c3ccc(C(=O)N4CCOCC4)cc3)n2)cc1 [CBK084539],104.288

row,SMILES,% of control remaining
1,Cc1nc(C)c(CC(=O)N2CCC(Oc3cccc(F)c3)CC2)s1 [CBK282223],98.0803
2,Cc1cc(C[C@@H]2CCC[C@H]2NCc2cc(Cl)ccc2O)on1 [CBK282997],128.732
3,O=C(CCN1CCCCC1)Nc1cnc(-c2ccc(F)cc2)c(-c2ccsc2)n1 [CBK036846],75.0317
4,COc1cccc(CS(=O)(=O)c2c(Br)sc3ccnc(N4CCNCC4)c23)c1 [CBK038956C],93.8115
5,O=C(c1ccc(NS(=O)(=O)c2ccccc2)cc1)N1CCN(Cc2ccc3c(c2)OCO3)CC1 [CBK267957],87.1722
6,CC1=NN(c2nc(-c3ccc(Br)cc3)cs2)C(=O)C1/N=N/c1ccc(C(=O)O)cc1 (stereo not drawn) [CBK262435],97.844
7,O=C(O)c1ccc(OCCNS(=O)(=O)c2ccc3ccccc3c2)cc1 [CBK299807],80.7682
8,O=C(c1ccco1)N1CCC2(CCCNC2)C1 (stereo not drawn) [CBK153233C],103.983
9,O=C(Nc1ccc2c(c1)oc1ccccc12)C1CCCO1 (stereo not drawn) [CBK270168],94.5498
10,COc1ccc(NC(=O)CSc2nnc(N)s2)cc1 [CBK058635],73.1069
11,O=c1[nH]cc(-c2ccccc2)cc1CNc1cccc2ncccc12 [CBK284771],40.8674
12,CS(=O)(=O)c1ccc(-c2cnc(N)c(NC3CCC(O)CC3)n2)cc1 (stereo not drawn) [CBK063865],97.8888
13,COc1cc(NC(=O)c2cccnc2)c(Cl)cc1NC(=O)c1ccc(Cl)cc1 [CBK033522],102.577
14,Cc1ccccc1OCc1nn2c(C)nnc2s1 [CBK269220],78.1426
15,Cc1c(NC(=O)CCCC(=O)O)c(=O)n(-c2ccccc2)n1C [CBK286532],106.112
16,Cc1nc(CSc2nc3sc4c(c3c(=O)n2-c2ccccc2)CCCCC4)cs1 [CBK265706],103.157
17,O=C1N[C@@]2(CC3CCC2CC3C(=O)N2CCCC2)Nc2ccccc21 (stereo partly drawn) [CBK284449],95.6091
18,COc1cc(C(=O)NCC(=O)O)cc(OC)c1OC [CBK261039],98.7508
19,Cc1ccc(NS(=O)(=O)c2ccc(NC(=O)c3ccc(CN4CCOCC4)cc3)cc2)c(C)c1 [CBK264815],102.009
20,COc1ccc2nc(NC(=O)c3ccc4ncsc4c3)sc2c1 [CBK287364],77.3773
21,COC(=O)c1nn(-c2ccccc2)c2cc([N+](=O)[O-])ccc12 [CBK115321],90.6336
22,O=C1CN=C(N2C(=O)C3C4C=CC(C4)C3C2=O)C(=O)N1 (stereo not drawn) [CBK028818],92.7685
23,COc1ccc([C@@]23CC[C@@H](NC(=O)Nc4cc(F)c(F)c(F)c4)C[C@@H]2N(C)CC3)c(F)c1OC [CBK073909T],78.3249
24,CC(C(=O)N(C)C)n1cccc1 (stereo not drawn) [CBK012421],87.4656
25,CCC(c1ccc2ccccc2c1)c1c(O)c2ccccc2oc1=O (stereo not drawn) [CBK016681],81.7795
